# Experimental data from the supplement of paper PMC8728848.
# Some of the results follow.
# B1: Mg1lysM (Mycosphaerella graminicola) (protein)
# chain: QRNPITITPQFDCGATNSQQYVARSGDTLTKIAQEIYHDVVGVCDIARANNLADPNRIDAGTPYTIPINCQTYDRNSCL
# How the values were obtained:
# Experiment in all cases: glycan array binding signal (z-score within array); higher = stronger binding
# Conditions in all cases: glycan notation: IUPAC condensed, linker removed
# [1] = molecular target: Fuc(a1-2)Gal6S(b1-3)GlcNAc
# Method in brief: (§1)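 Glycan array data were curated from 3228 arrays in the Consortium for Functional Glycomics database and kept only where the protein sequence was available. Glycan names were converted to IUPAC-condensed notation, and columns mapping to the same glycan were averaged. The binding signal is a within-array Z-score, averaged across arrays of the same protein sequence at different concentrations or buffers and across linkers. Negative Z-scores can be read as non-binding.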
# [2] = molecular target: Fuc(a1-2)Gal6S(b1-3)GlcNAc6S
# Method in brief: as §1
# [3] = molecular target: Fuc(a1-2)Gal6S(b1-4)Glc
# Method in brief: as §1
# [4] = molecular target: Fuc(a1-2)Gal6S(b1-4)Glc6S
# Method in brief: as §1
# [5] = molecular target: Fuc(a1-2)[Gal(a1-3)]Gal
# Method in brief: as §1
# [6] = molecular target: Fuc(a1-2)[Gal(a1-3)]Gal(b1-3)GalNAc
# Method in brief: as §1
# [7] = molecular target: Fuc(a1-2)[Gal(a1-3)]Gal(b1-3)GalNAc(b1-3)Gal(a1-4)Gal(b1-4)Glc
# Method in brief: as §1
# [8] = molecular target: Fuc(a1-2)[Gal(a1-3)]Gal(b1-3)GlcNAc
# Method in brief: as §1
# [9] = molecular target: Fuc(a1-2)[Gal(a1-3)]Gal(b1-3)GlcNAc(b1-2)Man(a1-3)[Fuc(a1-2)[Gal(a1-3)]Gal(b1-3)GlcNAc(b1-2)Man(a1-6)]Man(b1-4)GlcNAc(b1-4)GlcNAc
# Method in brief: as §1
# [10] = molecular target: Fuc(a1-2)[Gal(a1-3)]Gal(b1-3)GlcNAc(b1-2)Man(a1-3)[Fuc(a1-2)[Gal(a1-3)]Gal(b1-3)GlcNAc(b1-2)Man(a1-6)]Man(b1-4)GlcNAc(b1-4)[Fuc(a1-6)]GlcNAc
# Method in brief: as §1
# [11] = molecular target: Fuc(a1-2)[Gal(a1-3)]Gal(b1-3)GlcNAc(b1-3)GalNAc
# Method in brief: as §1
# [12] = molecular target: Fuc(a1-2)[Gal(a1-3)]Gal(b1-3)GlcNAc(b1-6)GalNAc
# Method in brief: as §1
# [13] = molecular target: Fuc(a1-2)[Gal(a1-3)]Gal(b1-4)Glc
# Method in brief: as §1
# [14] = molecular target: Fuc(a1-2)[Gal(a1-3)]Gal(b1-4)GlcNAc
# Method in brief: as §1
# [15] = molecular target: Fuc(a1-2)[Gal(a1-3)]Gal(b1-4)GlcNAc(b1-2)Man
# Method in brief: as §1
# [16] = molecular target: Fuc(a1-2)[Gal(a1-3)]Gal(b1-4)GlcNAc(b1-2)Man(a1-3)[Fuc(a1-2)[Gal(a1-3)]Gal(b1-4)GlcNAc(b1-2)Man(a1-6)]Man(b1-4)GlcNAc(b1-4)GlcNAc
# Method in brief: as §1
# [17] = molecular target: Fuc(a1-2)[Gal(a1-3)]Gal(b1-4)GlcNAc(b1-2)Man(a1-3)[Fuc(a1-2)[Gal(a1-3)]Gal(b1-4)GlcNAc(b1-2)Man(a1-6)]Man(b1-4)GlcNAc(b1-4)[Fuc(a1-6)]GlcNAc
# Method in brief: as §1
# [18] = molecular target: Fuc(a1-2)[Gal(a1-3)]Gal(b1-4)GlcNAc(b1-3)GalNAc
# Method in brief: as §1
# [19] = molecular target: Fuc(a1-2)[Gal(a1-3)]Gal(b1-4)GlcNAc(b1-3)[Fuc(a1-2)[Gal(a1-3)]Gal(b1-4)GlcNAc(b1-6)]GalNAc
# Method in brief: as §1
# [20] = molecular target: Fuc(a1-2)[Gal(a1-3)]Gal(b1-4)GlcNAc(b1-6)GalNAc
# Method in brief: as §1
# [21] = molecular target: Fuc(a1-2)[Gal(a1-3)]Gal(b1-4)[Fuc(a1-3)]Glc
# Method in brief: as §1
# [22] = molecular target: Fuc(a1-2)[Gal(a1-3)]Gal(b1-4)[Fuc(a1-3)]GlcNAc
# Method in brief: as §1
# [23] = molecular target: Fuc(a1-2)[Gal(a1-3)]Gal(b1-4)[Fuc(a1-3)]GlcNAc(b1-3)GalNAc
# Method in brief: as §1
# [24] = molecular target: Fuc(a1-2)[Gal(a1-4)]Gal(b1-4)GlcNAc
# Method in brief: as §1
# [25] = molecular target: Fuc(a1-2)[GalNAc(a1-3)]Gal
# Method in brief: as §1
# [26] = molecular target: Fuc(a1-2)[GalNAc(a1-3)]Gal(b1-3)GalNAc(a1-3)[Fuc(a1-2)]Gal(b1-4)GlcNAc
# Method in brief: as §1
# [27] = molecular target: Fuc(a1-2)[GalNAc(a1-3)]Gal(b1-3)GalNAc(b1-3)Gal(a1-4)Gal(b1-4)Glc
# Method in brief: as §1
# [28] = molecular target: Fuc(a1-2)[GalNAc(a1-3)]Gal(b1-3)GlcNAc
# Method in brief: as §1
# [29] = molecular target: Fuc(a1-2)[GalNAc(a1-3)]Gal(b1-3)GlcNAc(b1-2)Man(a1-3)[Fuc(a1-2)[GalNAc(a1-3)]Gal(b1-3)GlcNAc(b1-2)Man(a1-6)]Man(b1-4)GlcNAc(b1-4)GlcNAc
# Method in brief: as §1
# [30] = molecular target: Fuc(a1-2)[GalNAc(a1-3)]Gal(b1-3)GlcNAc(b1-2)Man(a1-3)[Fuc(a1-2)[GalNAc(a1-3)]Gal(b1-3)GlcNAc(b1-2)Man(a1-6)]Man(b1-4)GlcNAc(b1-4)[Fuc(a1-6)]GlcNAc
# Method in brief: as §1
# [31] = molecular target: Fuc(a1-2)[GalNAc(a1-3)]Gal(b1-3)GlcNAc(b1-3)GalNAc
# Method in brief: as §1
# [32] = molecular target: Fuc(a1-2)[GalNAc(a1-3)]Gal(b1-3)GlcNAc(b1-6)GalNAc
# Method in brief: as §1
# [33] = molecular target: Fuc(a1-2)[GalNAc(a1-3)]Gal(b1-4)Glc
# Method in brief: as §1
# [34] = molecular target: Fuc(a1-2)[GalNAc(a1-3)]Gal(b1-4)GlcNAc
# Method in brief: as §1
# [35] = molecular target: Fuc(a1-2)[GalNAc(a1-3)]Gal(b1-4)GlcNAc(b1-2)Man
# Method in brief: as §1
# [36] = molecular target: Fuc(a1-2)[GalNAc(a1-3)]Gal(b1-4)GlcNAc(b1-2)Man(a1-3)[Fuc(a1-2)[GalNAc(a1-3)]Gal(b1-4)GlcNAc(b1-2)Man(a1-6)]Man(b1-4)GlcNAc(b1-4)GlcNAc
# Method in brief: as §1
# [37] = molecular target: Fuc(a1-2)[GalNAc(a1-3)]Gal(b1-4)GlcNAc(b1-2)Man(a1-3)[Fuc(a1-2)[GalNAc(a1-3)]Gal(b1-4)GlcNAc(b1-2)Man(a1-6)]Man(b1-4)GlcNAc(b1-4)[Fuc(a1-6)]GlcNAc
# Method in brief: as §1
# [38] = molecular target: Fuc(a1-2)[GalNAc(a1-3)]Gal(b1-4)GlcNAc(b1-3)Gal(b1-4)GlcNAc
# Method in brief: as §1
# [39] = molecular target: Fuc(a1-2)[GalNAc(a1-3)]Gal(b1-4)GlcNAc(b1-3)Gal(b1-4)GlcNAc(b1-3)Gal(b1-4)GlcNAc
# Method in brief: as §1
# [40] = molecular target: Fuc(a1-2)[GalNAc(a1-3)]Gal(b1-4)GlcNAc(b1-3)GalNAc
# Method in brief: as §1
# [41] = molecular target: Fuc(a1-2)[GalNAc(a1-3)]Gal(b1-4)GlcNAc(b1-3)[Fuc(a1-2)[GalNAc(a1-3)]Gal(b1-4)GlcNAc(b1-6)]GalNAc
# Method in brief: as §1
# [42] = molecular target: Fuc(a1-2)[GalNAc(a1-3)]Gal(b1-4)GlcNAc(b1-6)GalNAc
# Method in brief: as §1
# [43] = molecular target: Fuc(a1-2)[GalNAc(a1-3)]Gal(b1-4)[Fuc(a1-3)]GlcNAc
# Method in brief: as §1
# [44] = molecular target: Fuc(a1-2)[GalNAc(a1-3)]Gal(b1-4)[Fuc(a1-3)]GlcNAc(b1-3)GalNAc
# Method in brief: as §1
# [45] = molecular target: Fuc(a1-2)[GalNAc(a1-4)]Gal(b1-4)GlcNAc
# Method in brief: as §1
binder,measurement,setting,value
B1,glycan array binding signal (z-score),[1],-0.075
same,glycan array binding signal (z-score),[2],-0.083
same,glycan array binding signal (z-score),[3],-0.066
same,glycan array binding signal (z-score),[4],-0.069
same,glycan array binding signal (z-score),[5],-0.062
same,glycan array binding signal (z-score),[6],-0.054
same,glycan array binding signal (z-score),[7],-0.072
same,glycan array binding signal (z-score),[8],-0.072
same,glycan array binding signal (z-score),[9],-0.042
same,glycan array binding signal (z-score),[10],-0.074
same,glycan array binding signal (z-score),[11],-0.068
same,glycan array binding signal (z-score),[12],-0.087
same,glycan array binding signal (z-score),[13],-0.074
same,glycan array binding signal (z-score),[14],-0.086
same,glycan array binding signal (z-score),[15],-0.081
same,glycan array binding signal (z-score),[16],-0.065
same,glycan array binding signal (z-score),[17],-0.101
same,glycan array binding signal (z-score),[18],-0.052
same,glycan array binding signal (z-score),[19],-0.055
same,glycan array binding signal (z-score),[20],-0.057
same,glycan array binding signal (z-score),[21],-0.078
same,glycan array binding signal (z-score),[22],-0.081
same,glycan array binding signal (z-score),[23],-0.075
same,glycan array binding signal (z-score),[24],-0.058
same,glycan array binding signal (z-score),[25],-0.058
same,glycan array binding signal (z-score),[26],-0.078
same,glycan array binding signal (z-score),[27],-0.082
same,glycan array binding signal (z-score),[28],-0.058
same,glycan array binding signal (z-score),[29],-0.082
same,glycan array binding signal (z-score),[30],-0.052
same,glycan array binding signal (z-score),[31],-0.061
same,glycan array binding signal (z-score),[32],-0.092
same,glycan array binding signal (z-score),[33],-0.078
same,glycan array binding signal (z-score),[34],-0.076
same,glycan array binding signal (z-score),[35],-0.074
same,glycan array binding signal (z-score),[36],-0.056
same,glycan array binding signal (z-score),[37],-0.079
same,glycan array binding signal (z-score),[38],-0.066
same,glycan array binding signal (z-score),[39],-0.077
same,glycan array binding signal (z-score),[40],-0.077
same,glycan array binding signal (z-score),[41],-0.091
same,glycan array binding signal (z-score),[42],-0.071
same,glycan array binding signal (z-score),[43],-0.067
same,glycan array binding signal (z-score),[44],-0.083
same,glycan array binding signal (z-score),[45],-0.066
